Some of the results follow. At the low end of the ranking, values are background and their order means little.

For this assay, the target named is SIX1 homeodomain (reference allele) (UniProt Q15475). Description: universal protein binding microarray. To be noted: Universal all-10-mer PBM (8x60K, AMADID 030236), 300 nM GST-tagged protein, Alexa Fluor 488 anti-GST; buffer, salt, pH and temperature not stated; high values mean tight binding; most listed sequences are background and not binding sites; double strand, one strand shown.
As for GAAATGGC, the binding signal was -0.274 E-score.

With GATTGGCA, the binding signal was -0.116 E-score.

For GCGATAGC, the binding signal amounted to 0.165 E-score.

For AGAAGGCA, the binding signal is -0.0738 E-score.

In the case of AGGAGGAC, the binding signal was -0.0962 E-score.

As to AGGTCACA, the binding signal was -0.152 E-score.

For the sequence AAAAGGCG, the binding signal was -0.276 E-score.

As to CCTCTGAG, the binding signal turned out to be 0.0438 E-score.

On to CTCGACAA, for which the binding signal is -0.134 E-score.

With GTCAAATA, the binding signal was -0.0524 E-score.

As for CACCAGGC, the binding signal stood at 0.175 E-score.

For CTTGGGAA, the binding signal was -0.0699 E-score.

Consider CCCTCTAG, for which the binding signal amounted to 0.0131 E-score.

With GCGGATCC, the binding signal was determined as 0.348 E-score.

For AGTTCAGC, the binding signal is -0.0858 E-score.

On to TAAACCGA, for which the binding signal was 0.0679 E-score.

In the case of CACCCGTA, the binding signal worked out at 0.229 E-score.

In the case of GCGCCTGA, the binding signal is -0.105 E-score.

With CGATATGC, the binding signal is 0.428 E-score.

With GCGGAAAA, the binding signal was -0.163 E-score.

On to CAATTCTG, for which the binding signal was -0.146 E-score.

In the case of ACTCTTTA, the binding signal was -0.222 E-score.

In the case of ACGCGTTC, the binding signal is -0.169 E-score.

As to GCATTGTA, the binding signal amounted to 0.0733 E-score.

AGCGCAAT: the binding signal is -0.0885 E-score.

Consider CCGCCTTA, for which the binding signal was 0.103 E-score.

As to CACAAAGG, the binding signal is -0.0533 E-score.

As to AGCCCTCA, the binding signal is -0.0969 E-score.

Turning to TGCTCGAA, the binding signal was -0.268 E-score.

Consider AACGCCTC, for which the binding signal was -0.191 E-score.

Consider ACAAAGGT, for which the binding signal is -0.138 E-score.

For ACGGCGAT, the binding signal was 0.29 E-score.

As to ATCTTTCG, the binding signal turned out to be 0.087 E-score.

ACTCTCAG: the binding signal is -0.268 E-score.

Turning to GGTACGAA, the binding signal came to 0.0404 E-score.

ACTTGTTC: the binding signal is -0.192 E-score.

With CGCGGCAC, the binding signal was -0.185 E-score.

In the case of CCGTGCTC, the binding signal was -0.0416 E-score.

As to CGTTCTTA, the binding signal was -0.103 E-score.

CAGCATGA: the binding signal was -0.0566 E-score.

AACCTTTG: the binding signal was -0.153 E-score.

CATGTTGG: the binding signal was -0.0797 E-score.

On to GTCAAGCA, for which the binding signal was -0.0588 E-score.

Regarding CCTTCTCC, the binding signal was found to be 0.0483 E-score.

As to CACAGTGC, the binding signal stood at 0.038 E-score.

With CTTCCGGC, the binding signal is -0.134 E-score.

In the case of GCCCTCAC, the binding signal was -0.152 E-score.

With GCCGATTA, the binding signal is 0.105 E-score.

On to CCCGCCTA, for which the binding signal amounted to 0.163 E-score.

For the sequence CGATGGCG, the binding signal is -0.21 E-score.

For the sequence ATTAAGCG, the binding signal turned out to be 0.0171 E-score.

As to CGAAGGAG, the binding signal is 0.0417 E-score.

Turning to AAGTAACG, the binding signal was -0.264 E-score.

For the sequence ACTCGGAG, the binding signal was determined as 0.0012 E-score.

Consider TCATATAA, for which the binding signal amounted to 0.0363 E-score.

For the sequence ATATCTAA, the binding signal is 0.316 E-score.

In the case of CGAATTCG, the binding signal is -0.348 E-score.

On to CCGGGCCG, for which the binding signal was determined as 0.012 E-score.

On to CTGCACTA, for which the binding signal worked out at 0.0182 E-score.

For the sequence TCTCTCAA, the binding signal is 0.00178 E-score.

Turning to ATCCCTGG, the binding signal stood at 0.312 E-score.

For AGGTTCGG, the binding signal came to 0.0563 E-score.

Consider AGCGAATC, for which the binding signal was -0.127 E-score.

In the case of TGCGGCAA, the binding signal was -0.201 E-score.

ACGCCCTA: the binding signal is -0.123 E-score.

For GACGTCAA, the binding signal was -0.211 E-score.

For TGTGGTAA, the binding signal was -0.0211 E-score.

For ACTAACTG, the binding signal is -0.166 E-score.

On to ACGCGAAC, for which the binding signal was -0.0486 E-score.

As to ACGGGGCG, the binding signal came to 0.127 E-score.

With GACAAGTA, the binding signal came to 0.0519 E-score.

Turning to ACGGCAGT, the binding signal was -0.0908 E-score.

As to GCAAATCA, the binding signal is -0.177 E-score.

Consider ACCACCAG, for which the binding signal amounted to 0.11 E-score.

For AGGCAAAA, the binding signal was -0.204 E-score.

As to CCAGGCTC, the binding signal was found to be 0.00819 E-score.

For the sequence CCACTGTC, the binding signal was -0.0355 E-score.

With ACCCTGCT, the binding signal was determined as 0.229 E-score.

As for CAGGCGAG, the binding signal was 0.0177 E-score.

As to CAATAATG, the binding signal was -0.0944 E-score.

With GATCGGGC, the binding signal is 0.296 E-score.

For the sequence ATTGTGAG, the binding signal was determined as 0.0432 E-score.

Regarding CGCACGGA, the binding signal worked out at 0.0762 E-score.

For the sequence ATTTTCAA, the binding signal was -0.234 E-score.

Take CAGCGACG: the binding signal is -0.152 E-score.

In the case of GACTAATC, the binding signal was determined as 0.0662 E-score.

Take CGGCCCTA: the binding signal was -0.081 E-score.

As to CTGTATAA, the binding signal amounted to 0.102 E-score.

As to AACGTCCC, the binding signal is -0.321 E-score.

In the case of CAAAATCC, the binding signal came out at 0.0129 E-score.

For the sequence AGGACAAT, the binding signal was -0.0417 E-score.

As to ATCGGTCG, the binding signal was found to be 0.225 E-score.

Regarding CGCTGCCA, the binding signal was -0.0924 E-score.

As to ATCGCGCA, the binding signal turned out to be 0.0279 E-score.

Regarding CCATGCGC, the binding signal is -0.0241 E-score.

With ATCCCTAA, the binding signal stood at 0.152 E-score.

As to ACACGTGC, the binding signal was -0.0118 E-score.

For TAGAGCGA, the binding signal was -0.0893 E-score.

Consider GGGGCATA, for which the binding signal was 0.0124 E-score.

Turning to CTGAGATC, the binding signal was 0.253 E-score.

Turning to CTCTTAAC, the binding signal was -0.23 E-score.

For GCTGCTCA, the binding signal is -0.188 E-score.

Regarding CAGGTAGG, the binding signal was -0.0379 E-score.

As to AGCATAAT, the binding signal was -0.00289 E-score.

Take ATTGCGTA: the binding signal is 0.0128 E-score.

On to GAAAGTTA, for which the binding signal is -0.237 E-score.

As to TGCCAAAA, the binding signal is -0.227 E-score.

Take AGGCATGG: the binding signal was -0.135 E-score.

With GAACAGGC, the binding signal is -0.105 E-score.

For ATGGTATC, the binding signal came out at 0.469 E-score.

Take GCAAGACC: the binding signal is -0.106 E-score.

In the case of CTAAATAC, the binding signal came to 0.1 E-score.

Regarding GCTATGGA, the binding signal is -0.058 E-score.

Consider AACTCGAA, for which the binding signal is -0.348 E-score.

In the case of GATAGCAA, the binding signal was determined as 0.202 E-score.

For ACCGTCTC, the binding signal amounted to 0.251 E-score.

Consider GTGTGAGA, for which the binding signal came out at 0.245 E-score.

Consider GGAGCTAA, for which the binding signal is -0.149 E-score.

Take GGTGCCCA: the binding signal was -0.215 E-score.

For ATGCCTCA, the binding signal was -0.111 E-score.

Turning to CTACCTGA, the binding signal was 0.0294 E-score.

For the sequence GCTGACGA, the binding signal was -0.199 E-score.

Consider GGATCTGA, for which the binding signal worked out at 0.288 E-score.

On to GGGTTCCA, for which the binding signal turned out to be 0.0272 E-score.

On to AAACAACC, for which the binding signal is -0.291 E-score.

ATGCTGCC: the binding signal is -0.0369 E-score.

Turning to GGTTCACA, the binding signal is -0.098 E-score.

Regarding AATCAATT, the binding signal is -0.149 E-score.

Take AGGTGTGC: the binding signal came to 0.00258 E-score.

Turning to GAGCGTGA, the binding signal was -0.143 E-score.

For CATCCTTC, the binding signal was determined as 0.00573 E-score.

Take ATACAGTA: the binding signal is 0.321 E-score.

In the case of CAGAAAGC, the binding signal was -0.341 E-score.

Take GGACGTGA: the binding signal is -0.214 E-score.

Turning to TGAATACA, the binding signal is -0.0905 E-score.

With CGCAGGCA, the binding signal turned out to be 0.0956 E-score.

For AAATGATC, the binding signal amounted to 0.321 E-score.

In the case of CAAGCACA, the binding signal is -0.159 E-score.

Turning to CGGTTCTA, the binding signal is 0.0141 E-score.

Turning to AGGGCTTG, the binding signal is -0.178 E-score.

AATGCCAT: the binding signal is -0.00585 E-score.

Take TTCCCAAA: the binding signal was -0.117 E-score.

Take ACCTTCTG: the binding signal worked out at 0.0823 E-score.

On to GCACCCCC, for which the binding signal turned out to be 0.1 E-score.

Regarding GGAACTAA, the binding signal came to 0.127 E-score.

Consider CCCGCGTA, for which the binding signal was 0.128 E-score.

On to GAACCGTC, for which the binding signal is -0.179 E-score.

As for CATGGACC, the binding signal was -0.217 E-score.

Turning to ATCATAGA, the binding signal was determined as 0.229 E-score.

Regarding AACGCGGC, the binding signal is -0.169 E-score.

Regarding AATTAAGG, the binding signal is -0.293 E-score.

Take AGTTCATC: the binding signal was -0.121 E-score.

As to CGCCGACC, the binding signal is -0.153 E-score.

On to AAGTAAGA, for which the binding signal is -0.154 E-score.

Take ACCAAGTG: the binding signal is -0.103 E-score.

Turning to TTACATAA, the binding signal was determined as 0.00422 E-score.

In the case of GGGGCTGA, the binding signal is -0.0139 E-score.

For the sequence CATGTGTA, the binding signal turned out to be 0.0184 E-score.

Regarding CGCGGTTC, the binding signal was 0.00839 E-score.

Regarding ACGTTCCC, the binding signal is -0.0998 E-score.

Turning to CACACGTC, the binding signal was -0.108 E-score.

CCCCTGCA: the binding signal was 0.0854 E-score.

For the sequence CTGTCTGA, the binding signal was -0.0334 E-score.

As for AATGAAAA, the binding signal stood at 0.0521 E-score.

Take CAGCGTTA: the binding signal is -0.178 E-score.

Turning to GGTTGGAC, the binding signal was 0.0291 E-score.

Regarding ATATTTTC, the binding signal came out at 0.199 E-score.

Consider CAGATATA, for which the binding signal worked out at 0.263 E-score.

As to AAAACTGC, the binding signal is -0.174 E-score.

With GGAAAGAC, the binding signal is -0.158 E-score.

Take GGGCGCCA: the binding signal was -0.23 E-score.

Regarding AACCTTCG, the binding signal is -0.164 E-score.

Source of the values: paper PMC10668032.
